From PubChem BioAssay AID651820 (National Center for Advancing Translational Sciences (NCATS), 2012)
The whole screen tested about 340,000 compounds, of which about 12,000 (3.5%) were called active. The inconclusive results got no clear call from the source; some entries with a clear call stand among them for comparison. Calls follow the shape of the dose curve; as a rule, active = well fitted inhibition curve with a large enough effect; inconclusive = small, poorly fitted or top-dose-only effect, or another doubt; inactive = no such curve, though single readings can be large or run the other way. Potencies of inconclusive entries are left out as doubtful fits.

assay: qHTS Assay for Inhibitors of Hepatitis C Virus (HCV); settings: Huh7.5.1 HCVcc-Cre (HCVcc is cell-culture hepatitis C virus) infection, luciferase reporter, 44 h; activity change, negative = inhibition: at 41.8 µM (top of the series) unless noted
How it was run: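 Infectious HCVcc-Cre (~0.5 moi) was added to cells just after compound, with cells seeded 4 h earlier at 1,000 per well. Luciferase activity after 44 h culture reported infection; substrate was incubated 15 min at room temperature before reading.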
% is scaled to controls: 0 for no effect and ±100 for the full control effect; potency is read from the fitted curve at half-maximal effect; tags tell the direction and shape of the fitted curve.

SMILES	activity change, negative = inhibition	Potency
Cc1ccc(C)c(NS(=O)(=O)c2ccc3c(c2)Cc2cc(S(=O)(=O)Nc4cc(C)ccc4C)ccc2-3)c1	inactive: -6.78%	
CC1=CC(C)(C)N(S(=O)(=O)c2ccc(F)cc2)c2ccc(C)cc21		inconclusive [inhibitor, single point]
CC1=CC(=C2C(=O)c3ccccc3C2=O)C=C(C)N1Cc1ccco1		inconclusive [inhibitor, partial curve, poor fit]
COc1cc(C(=O)N/N=C/c2sc(N3CCOCC3)nc2-c2ccccc2)cc(OC)c1OC		inconclusive [inhibitor, full curve]
O=C(N/N=C/c1ccccc1O)c1ccc2c(c1)OCO2		active: 5.62 µM
Cc1ccc(NC(=O)c2cccs2)cc1S(=O)(=O)Nc1cccc(Cl)c1		inconclusive [inhibitor, single point]
CC(=O)Oc1ccc(Nc2ccccc2)cc1	inactive: 4.51%	
CC1CCN(c2ncnc3ccccc23)CC1		active: 11.2 µM
CC(C)n1c(SCc2ccc(Cl)cc2)nc2c1c(=O)[nH]c(=O)n2C	inactive: -7.89%	
COc1ccc(CN2CCN(C(=O)C3CCN(S(=O)(=O)c4cccs4)CC3)CC2)c(OC)c1OC		inconclusive [inhibitor, single point]
Cc1ccc(OCCCC(=O)Nc2ccc(S(=O)(=O)N3CCOCC3)cc2)cc1		inconclusive [inhibitor, single point]
O=C(Nc1cc2c(=O)n(-c3ccc(Oc4ccccc4)cc3)ccc2oc1=O)c1ccccc1		inconclusive [inhibitor, partial curve]
Cc1ccc2nc(SCC(=O)Nc3cc(C(F)(F)F)ccc3N3CCOCC3)[nH]c2c1		inconclusive [inhibitor, full curve]
Cc1noc(NS(=O)(=O)c2ccc(NC(=O)c3ccc(Cl)c(S(=O)(=O)N(C)c4ccccc4)c3)cc2)c1C	inactive: -12.5%	
CCn1c(CSc2nnc(-c3ccc4c(c3)OCO4)o2)nc2cc(S(=O)(=O)N(C)C)ccc21		inconclusive [inhibitor, partial curve]
Cc1nn(Cc2c(F)c(F)c(F)c(F)c2F)c(C)c1NC(=O)c1cccc(COc2ccccc2Cl)c1		inconclusive [inhibitor, partial curve]
O=C(CN1CCC(O)(c2cccc(C(F)(F)F)c2)CC1)NCCc1ccccc1		inconclusive [inhibitor, single point]
NC(=O)c1c(NC(=O)c2ccncc2)sc2c1CCCCCC2		inconclusive [inhibitor, partial curve]
